# In PubChem BioAssay AID1458 (National Center for Advancing Translational Sciences (NCATS), 2008):
# Several values for one entry are separate records, joined by “and”; a condition that tells them apart may be missing. Identical values can stand only once. The whole screen tested about 210,000 compounds, of which about 5,900 (2.8%) were called active. The shares of active, inactive and inconclusive entries below differ from those in the screen. Calls come from the whole dose curve; as a rule, active = well fitted activation curve with a large enough effect; inconclusive = small, poorly fitted or top-dose-only effect; inactive = no such curve, though single readings can be large or run the other way. Potencies beside an inconclusive call are fits to weak or partial responses and may not hold up.
# Assay: qHTS Assay for Enhancers of SMN2 Splice Variant Expression; note: nearly all actives have a fitted effect of over 55% in size; for activity change, positive = activation: % of control where 0% means no effect
# Conditions: HEK293 SMN2-luciferase splicing reporter, luminescence, 30-36 h; activity change, positive = activation: at 46.1 µM (top of the series)
# How it was run: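 HEK293 cells carry an SMN2 minigene-luciferase reporter in which exon 7 inclusion puts luciferase in frame. Cells were seeded at 2000 cells/well, attached for 10-12 hours, then exposed to compounds for 30-36 hours at 37C before ONE-Glo luminescence.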
# Potency is the fitted concentration of half-maximal effect; tags give direction and shape of the fitted curve.
SMILES,Potency,"activity change, positive = activation"
COc1ccc2c(c1)c(C(=O)N/N=C/c1ccc(O)c(O)c1)c(C)n2C,"inconclusive: 1.12 µM [activator, full curve, poor fit]",–
COc1ccc(NC(=O)Cn2nnc(C(=O)NCc3ccccc3OC)c2N)cc1Cl,"inconclusive: 1.12 µM [activator, partial curve, poor fit]",–
CC(=O)Nc1ccc(S(=O)(=O)Nc2nc3ccccc3nc2Nc2ccc3ccccc3c2)cc1,"inconclusive: 22.4 µM [activator, single point]",–
COc1ccc(C(=O)N(Cc2ccco2)Cc2ccccc2F)cc1Cl,–,inactive: -36.6%
Cc1ccccc1SCCNC(=O)CCc1ccccc1,"inconclusive: 17.8 µM [activator, partial curve, poor fit]",–
CC(C)(C)SCCNC(=O)/C=C/c1ccc(F)cc1,"inconclusive: 17.8 µM [activator, single point]",–
CC(C)(C)c1cc(/C=N/NC(=O)Cc2nc3ccccc3[nH]2)cc(C(C)(C)C)c1O,–,inactive: -12.8%
CC(C)=C1C2CCC1C1C(=O)N(c3nc(-c4ccccc4)c(C)s3)C(=O)C21 (stereo not drawn),–,inactive: -15.4%
Fc1ccc(-c2cnc[nH]2)cc1,"inconclusive: 7.08 µM [activator, partial curve]",–
O=C(c1cccs1)c1ccc(-c2cccs2)s1,"inconclusive: 3.16 µM [activator, single point]",–
Cn1cc(Cl)c(C(=O)Nc2cccc(Cl)c2Cl)n1,–,inactive: 56.2%
CC(C)OC(=O)c1c2c(n3ccccc13)C(=O)c1ccccc1C2=O,–,inactive: 0.551%
O=C1C[C@H]2OCC=C3CN4CC[C@@]5(C(=O)O)[C@H](N1)C2[C@H]3C[C@H]45 (stereo partly drawn),–,inactive: 7.7% [at 9.22 µM]
Cc1ccc(C)c(-n2c3nc(=O)[nH]c(=O)c-3cc3cc([N+](=O)[O-])ccc32)c1,"inconclusive: 0.0035 µM [activator, full curve, poor fit]",–
CC(C)NC(=O)C1CCN(C(=O)N(C)C)CC1,"inconclusive: 0.0112 µM [activator, full curve, poor fit]",–
CCOC(=O)/C(C#N)=C\c1cc(C)n(-c2ccccc2)c1C,–,inactive: -65.5%
Cc1nc2ccc(S(=O)(=O)Nc3cc(-c4nc5cccnc5s4)ccc3C)cc2s1,active: 15.8 µM,–
O=C(/C=C/c1cccs1)NC(=S)Nc1ccccc1,–,inactive: 15.2%
C=CCc1ccc(OCC(O)COCC)c(OC)c1 (stereo not drawn),active: 12.6 µM,–
C=CCNC(=O)C1CC(=O)N(c2ccc(OCC(=O)Nc3cccc(OC)c3)cc2)C1 (stereo not drawn),"inconclusive: 14.1 µM [activator, single point]",–
COc1ccc(C2=NOC(CN3C(=O)c4ccccc4S3(=O)=O)C2)cc1 (stereo not drawn),"inconclusive: 14.1 µM [activator, partial curve, poor fit]",–
COc1ccc(NC(C)=O)c(C)c1,–,inactive: -3.3%
Cc1[nH]nc2c1C1(CCN(C(=O)OCc3ccccc3)CC1)C(C#N)=C(N)O2,"inconclusive: 39.8 µM [activator, partial curve, poor fit]",–
COc1ccc(C(=O)OCC(=O)c2ccc(C3CCCCC3)cc2)cc1,–,inactive: -84.5%
COC(=O)c1ccc2c(=O)n(CC3CCCO3)c(SCC(=O)Nc3ccccc3Cl)nc2c1 (stereo not drawn),–,inactive: 24.9%
CC1CCCCC1NC(=O)CO/N=C/c1ccccc1OC(F)F (stereo not drawn),–,inactive: -8.18%

SMILES,Potency,"activity change, positive = activation"
C=CCn1c(N)c(C(=O)Nc2cccc(C)c2)c2nc3ccccc3nc21,–,inactive: 11.8%
NC(=NCCc1c[nH]c2ccccc12)NS(=O)(=O)c1ccc2ccccc2c1,–,inactive: -60.1%
Cc1cc(C)n(-c2nc(Nc3ccccc3)nc(-n3nc(C)cc3C)n2)n1,–,inactive: -17.9%
COc1cccc(C2CC(=O)Nc3c2c(=O)n(C)c2nc4ccccc4n32)c1 (stereo not drawn),–,inactive: -11.7%
Nc1nnc(CC(=O)N/N=C/c2cccc(OCCOc3ccccc3)c2)s1,active: 10 µM,–
COc1ccc(-c2cc(-c3n[nH]c(=S)n3-c3cc(OC)ccc3OC)[nH]n2)cc1,"inconclusive: 1 µM [activator, full curve, poor fit]",–
O=C(N/N=C/c1ccncc1)c1ccc(NC(=O)c2ccc(Cl)cc2)cc1,–,inactive: 11.1%
N#CCSc1nc2ccccc2c(=O)n1-c1ccccc1,"inconclusive: 3.55 µM [activator, full curve, poor fit]",–
Cc1nc(NC(=O)c2cccs2)ccc1Br,active: 11.2 µM,–
Fc1ccccc1CSc1nc2ccccc2[nH]1,active: 5.62 µM,–
C/C(=N/Nc1nc(-c2ccccc2)cc(-c2ccccc2)n1)c1ccc(N)cc1,"inconclusive: 3.55 µM [activator, single point]",–
CC(=O)c1ccc(NC(=O)c2ccc3nc(-c4ccco4)c(-c4ccco4)nc3c2)cc1,–,inactive: 14%
CCc1nonc1NC(=O)c1oc2cc(C)c(C)cc2c1C,"inconclusive: 4.47 µM [activator, single point]",–
Cc1ccc(-c2cc(NC(=O)c3cccc(C)c3)on2)cc1,"inconclusive: 12.6 µM [activator, partial curve]",–
CCOC(=O)N/N=C/C=C/c1ccccc1,active: 11.2 µM,–
COc1ccc(-c2nn(-c3ccccc3)cc2C(=O)Nc2nccs2)cc1OC,"inconclusive: 14.1 µM [activator, single point]",–
N#Cc1c(N2CCN(C(=O)c3ccccc3)CC2)nc(-c2ccccc2)c2c1CCCC2,–,inactive: -10.5%
COc1ccc(C(=O)c2c[nH]c3ccccc23)cc1,"inconclusive: 15.8 µM [activator, single point]",–
Cc1ccc(N2CC(C(=O)Nc3ccc4c(c3)OCCO4)CC2=O)cc1 (stereo not drawn),"inconclusive: 22.4 µM [activator, single point]",–
O=C(CSc1ccccn1)N/N=C/C=C/c1ccccc1,"inconclusive: 1.12 µM [activator, full curve, poor fit]",–
COc1ccc(C(C)C)cc1S(=O)(=O)n1cnc(C)c1,–,inactive: 23.8%
CSc1cccc(NC(=O)/C=C/c2ccccc2)c1,"inconclusive: 35.5 µM [activator, single point]",–
COc1ccccc1CN1CC[C@@]2(CCCN(C(=O)c3ccco3)C2)C1,–,inactive: -11.6%
Cc1ccc(NC(=O)CCc2nc3cccnc3n2-c2ccccc2)cc1Cl,–,inactive: -10.7%
COc1ccc(N=Cc2oc3ccc4ccccc4c3c2O)cc1,active: 12.6 µM,–
Cc1ccc(-c2noc(-c3cccs3)n2)cc1,active: 12.6 µM,–

SMILES,Potency,"activity change, positive = activation"
Cc1nc2cc3nc(C)sc3cc2s1,"inconclusive: 20 µM [activator, partial curve, poor fit]",–
COc1ccccc1Nc1nc(N)nc(-c2cc3ccccc3o2)n1,"inconclusive: 12.6 µM [activator, single point]",–
OC(COCC1COc2ccccc2O1)CN1CCN(c2ccccc2F)CC1 (stereo not drawn),–,inactive: -17.1%
O=C(CSc1ncnc2c1oc1ccccc12)N1CCc2ccccc2C1,"inconclusive: 1.78 µM [activator, partial curve, poor fit]",–
CCOC(=O)c1c(NC(=O)c2cc(C)oc2C)sc(C(=O)Nc2ccc(Cl)cc2)c1C,–,inactive: -1.97%
O=C(c1nnc(-c2ccncc2)o1)c1ccccc1Cl,–,inactive: -11.7%
COc1cccc(CNC(=O)c2cc(=O)[nH]c3ccc(S(=O)(=O)N4CCCC4)cc23)c1,–,inactive: -0.0776%
O=C(Nc1ccc(Cl)cc1)Nc1nnc(CSc2ccc(Cl)cc2)s1,"inconclusive: 14.1 µM [activator, single point]",–
COc1cc(C(=O)OCC(=O)N2CCCC2)cc(OC)c1OC,"inconclusive: 0.282 µM [activator, full curve, poor fit]",–
O=C(c1ccc(-c2cccc(C(F)(F)F)c2)o1)N1CCOCC1,–,inactive: 28.2%
COc1ccc2nc(Nc3ccc4c(c3)OCO4)sc2c1,"inconclusive: 5.01 µM [activator, partial curve, poor fit]",–
CC(C)(O)C(=O)N=Nc1c(O)[nH]c2ccccc12,"inconclusive: 12.6 µM [activator, partial curve]",–
O=C(N/N=C\C=C\c1ccco1)c1cc(-c2ccc3ccccc3c2)n[nH]1,"inconclusive: 31.6 µM [activator, partial curve, poor fit]",–
C[N+](C)(C)CC[N+]1(C)Cc2c(Cl)c(Cl)c(Cl)c(Cl)c2C1,–,inactive: -0.0233%
O=C1C(C2=NC(C(=O)O)C3C(=O)N(c4ccc(Cl)cc4)C(=O)C23)=C(O)c2ccccc21 (stereo not drawn),–,inactive: -2.73%
CCc1cccc(CC)c1NC(=O)/C(C#N)=C/c1ccccc1C(F)(F)F,"inconclusive: 35.5 µM [activator, single point]",–
Cc1cc2c(c(SCC#N)n1)C(=O)OC2,–,inactive: -7.91%
CCc1ccc2nc(N3CCC(C(=O)NCCC(C)C)CC3)sc2c1,–,inactive: -6.96%
CCOC(=O)C1CCN(C(=S)Nc2cc(OC)c(OC)cc2C(=O)OC)CC1,"inconclusive: 0.0794 µM [activator, full curve, poor fit]",–
Cc1ccc(/C=C/C(=O)Nc2cc(C)on2)cc1,"inconclusive: 12.6 µM [activator, single point]",–
Cc1ccc2oc(-c3ccc(NC(=O)c4cccnc4)cc3)nc2c1,active: 2 µM,–
O=C(Nc1nnc(-c2ccc3c(c2)OCCO3)o1)C1CCCCC1,"inconclusive: 10 µM [activator, partial curve]",–
NNc1nncc2ccccc12,active: 3.98 µM and active: 6.31 µM and active: 12.6 µM,–
CCOCCCNC(=O)CCCOc1ccccc1,"inconclusive: 0.794 µM [activator, full curve]",–
COCCNC(=S)Nc1ccc2nsnc2c1,"inconclusive: 11.2 µM [activator, partial curve, poor fit]",–
CC(C)(C)/C(O)=C(/C#N)c1nc2ccccc2[nH]1,–,inactive: -14.7%
